Results from article PMC9399231.
These are yes or no findings as the source states them, for the method shown. Binding seen in cells or lysates may run through a third protein. Some entries that bind do so weakly or less than the wild type.

Protein sequences, listed by entry. Tags and fused reporters are not part of them.
UniProt F7F8L9: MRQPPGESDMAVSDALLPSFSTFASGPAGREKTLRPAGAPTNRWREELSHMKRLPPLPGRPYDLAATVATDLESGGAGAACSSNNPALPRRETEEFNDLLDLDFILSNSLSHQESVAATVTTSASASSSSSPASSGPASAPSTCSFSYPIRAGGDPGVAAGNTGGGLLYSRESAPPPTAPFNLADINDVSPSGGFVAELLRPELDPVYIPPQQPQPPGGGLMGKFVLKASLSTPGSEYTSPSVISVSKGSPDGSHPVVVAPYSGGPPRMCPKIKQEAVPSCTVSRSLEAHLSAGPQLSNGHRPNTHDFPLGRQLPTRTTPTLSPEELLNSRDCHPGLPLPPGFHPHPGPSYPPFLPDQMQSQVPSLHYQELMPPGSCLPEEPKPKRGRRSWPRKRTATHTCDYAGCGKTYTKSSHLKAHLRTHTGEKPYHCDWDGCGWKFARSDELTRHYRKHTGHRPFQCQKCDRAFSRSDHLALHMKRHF
UniProt O43474: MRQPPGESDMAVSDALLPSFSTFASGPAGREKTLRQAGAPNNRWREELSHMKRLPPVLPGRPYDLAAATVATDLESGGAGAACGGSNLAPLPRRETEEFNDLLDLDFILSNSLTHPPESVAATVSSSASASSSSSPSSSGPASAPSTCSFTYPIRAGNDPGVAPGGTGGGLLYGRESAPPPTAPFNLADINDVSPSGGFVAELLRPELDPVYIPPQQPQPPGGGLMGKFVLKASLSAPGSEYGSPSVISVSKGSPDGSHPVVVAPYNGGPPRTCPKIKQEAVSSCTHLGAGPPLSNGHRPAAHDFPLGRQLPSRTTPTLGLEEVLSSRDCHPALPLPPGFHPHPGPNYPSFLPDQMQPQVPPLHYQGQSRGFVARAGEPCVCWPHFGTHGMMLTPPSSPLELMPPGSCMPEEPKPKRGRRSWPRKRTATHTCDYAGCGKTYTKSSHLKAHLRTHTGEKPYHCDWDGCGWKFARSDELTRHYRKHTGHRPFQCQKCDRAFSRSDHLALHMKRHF
UniProt Q8K1P7: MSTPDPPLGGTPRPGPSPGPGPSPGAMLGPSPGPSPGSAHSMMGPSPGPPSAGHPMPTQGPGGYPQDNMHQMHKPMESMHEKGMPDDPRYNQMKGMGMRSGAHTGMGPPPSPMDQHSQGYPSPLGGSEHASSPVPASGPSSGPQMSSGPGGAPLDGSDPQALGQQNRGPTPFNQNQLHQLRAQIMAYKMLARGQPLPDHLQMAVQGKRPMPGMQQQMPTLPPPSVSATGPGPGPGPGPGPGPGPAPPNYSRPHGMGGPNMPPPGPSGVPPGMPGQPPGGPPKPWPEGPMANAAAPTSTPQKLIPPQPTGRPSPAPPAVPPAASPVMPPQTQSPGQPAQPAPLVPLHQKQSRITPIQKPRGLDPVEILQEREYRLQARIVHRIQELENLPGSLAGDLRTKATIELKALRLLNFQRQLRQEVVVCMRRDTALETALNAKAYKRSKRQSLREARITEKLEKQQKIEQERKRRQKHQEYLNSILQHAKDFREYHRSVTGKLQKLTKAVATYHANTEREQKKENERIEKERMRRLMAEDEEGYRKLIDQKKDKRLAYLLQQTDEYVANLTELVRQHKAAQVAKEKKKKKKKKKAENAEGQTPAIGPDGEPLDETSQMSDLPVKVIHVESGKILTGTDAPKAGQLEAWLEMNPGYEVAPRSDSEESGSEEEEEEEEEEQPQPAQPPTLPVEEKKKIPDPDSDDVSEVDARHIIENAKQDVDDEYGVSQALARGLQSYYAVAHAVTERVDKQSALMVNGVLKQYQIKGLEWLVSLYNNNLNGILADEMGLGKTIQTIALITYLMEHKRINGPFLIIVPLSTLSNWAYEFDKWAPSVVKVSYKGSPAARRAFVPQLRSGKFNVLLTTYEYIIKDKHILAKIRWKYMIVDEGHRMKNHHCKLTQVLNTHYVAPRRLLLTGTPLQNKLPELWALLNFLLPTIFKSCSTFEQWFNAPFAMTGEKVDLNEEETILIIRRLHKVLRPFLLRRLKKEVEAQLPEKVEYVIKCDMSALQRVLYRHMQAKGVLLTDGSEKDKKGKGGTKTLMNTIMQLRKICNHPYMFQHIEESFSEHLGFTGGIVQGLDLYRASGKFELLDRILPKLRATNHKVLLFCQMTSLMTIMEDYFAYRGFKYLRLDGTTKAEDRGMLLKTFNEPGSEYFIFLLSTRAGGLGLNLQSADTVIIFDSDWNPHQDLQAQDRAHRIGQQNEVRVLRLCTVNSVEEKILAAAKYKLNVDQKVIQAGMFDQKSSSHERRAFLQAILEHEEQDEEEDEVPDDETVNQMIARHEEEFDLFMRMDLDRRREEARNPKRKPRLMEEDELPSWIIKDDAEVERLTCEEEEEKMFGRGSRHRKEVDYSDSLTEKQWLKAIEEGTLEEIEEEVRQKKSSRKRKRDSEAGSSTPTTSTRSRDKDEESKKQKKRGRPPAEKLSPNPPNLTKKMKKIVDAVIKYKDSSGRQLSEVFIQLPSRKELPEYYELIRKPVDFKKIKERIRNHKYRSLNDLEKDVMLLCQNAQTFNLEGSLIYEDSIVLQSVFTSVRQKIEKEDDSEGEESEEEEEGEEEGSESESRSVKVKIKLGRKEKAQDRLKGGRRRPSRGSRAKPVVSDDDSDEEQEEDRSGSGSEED
UniProt P51532: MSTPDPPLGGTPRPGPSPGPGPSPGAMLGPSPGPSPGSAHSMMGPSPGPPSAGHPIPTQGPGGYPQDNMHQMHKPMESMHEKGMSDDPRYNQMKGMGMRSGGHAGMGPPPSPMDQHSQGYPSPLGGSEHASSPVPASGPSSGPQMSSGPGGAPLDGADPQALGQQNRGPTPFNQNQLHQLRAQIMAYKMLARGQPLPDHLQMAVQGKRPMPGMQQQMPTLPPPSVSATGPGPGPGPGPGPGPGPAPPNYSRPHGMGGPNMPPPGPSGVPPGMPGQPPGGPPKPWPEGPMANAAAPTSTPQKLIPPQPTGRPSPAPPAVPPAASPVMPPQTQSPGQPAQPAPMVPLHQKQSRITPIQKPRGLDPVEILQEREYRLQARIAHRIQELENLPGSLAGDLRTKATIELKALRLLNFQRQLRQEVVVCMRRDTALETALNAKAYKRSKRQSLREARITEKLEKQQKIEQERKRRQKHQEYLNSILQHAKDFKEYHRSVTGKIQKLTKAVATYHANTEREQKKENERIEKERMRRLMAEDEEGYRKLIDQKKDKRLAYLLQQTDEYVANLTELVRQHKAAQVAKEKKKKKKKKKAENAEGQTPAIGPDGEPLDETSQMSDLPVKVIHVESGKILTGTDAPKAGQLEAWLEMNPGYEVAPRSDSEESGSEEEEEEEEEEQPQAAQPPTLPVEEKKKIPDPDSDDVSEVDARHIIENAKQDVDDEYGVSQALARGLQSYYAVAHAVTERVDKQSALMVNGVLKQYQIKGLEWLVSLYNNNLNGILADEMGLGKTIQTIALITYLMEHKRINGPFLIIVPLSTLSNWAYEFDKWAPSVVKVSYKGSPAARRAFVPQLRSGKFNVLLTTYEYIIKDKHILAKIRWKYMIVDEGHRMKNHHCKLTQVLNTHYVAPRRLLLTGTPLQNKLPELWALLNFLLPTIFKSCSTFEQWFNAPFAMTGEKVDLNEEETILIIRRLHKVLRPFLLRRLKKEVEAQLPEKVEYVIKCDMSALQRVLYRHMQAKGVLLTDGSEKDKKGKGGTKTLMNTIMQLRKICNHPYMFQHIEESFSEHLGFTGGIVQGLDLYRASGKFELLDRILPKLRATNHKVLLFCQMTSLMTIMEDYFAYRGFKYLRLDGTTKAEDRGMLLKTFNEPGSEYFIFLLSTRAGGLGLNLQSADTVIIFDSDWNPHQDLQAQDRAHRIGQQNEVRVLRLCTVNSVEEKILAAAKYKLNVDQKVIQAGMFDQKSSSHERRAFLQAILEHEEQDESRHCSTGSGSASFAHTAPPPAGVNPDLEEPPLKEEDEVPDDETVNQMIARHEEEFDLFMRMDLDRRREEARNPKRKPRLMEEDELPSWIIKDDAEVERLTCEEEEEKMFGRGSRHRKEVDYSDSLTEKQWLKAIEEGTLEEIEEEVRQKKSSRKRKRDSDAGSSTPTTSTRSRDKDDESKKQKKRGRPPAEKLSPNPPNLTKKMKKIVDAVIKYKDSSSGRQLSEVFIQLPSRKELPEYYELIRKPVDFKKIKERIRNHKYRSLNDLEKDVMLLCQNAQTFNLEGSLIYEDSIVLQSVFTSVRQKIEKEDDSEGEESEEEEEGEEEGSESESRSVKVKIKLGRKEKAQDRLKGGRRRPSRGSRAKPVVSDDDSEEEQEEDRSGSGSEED
UniProt Q8TAQ2: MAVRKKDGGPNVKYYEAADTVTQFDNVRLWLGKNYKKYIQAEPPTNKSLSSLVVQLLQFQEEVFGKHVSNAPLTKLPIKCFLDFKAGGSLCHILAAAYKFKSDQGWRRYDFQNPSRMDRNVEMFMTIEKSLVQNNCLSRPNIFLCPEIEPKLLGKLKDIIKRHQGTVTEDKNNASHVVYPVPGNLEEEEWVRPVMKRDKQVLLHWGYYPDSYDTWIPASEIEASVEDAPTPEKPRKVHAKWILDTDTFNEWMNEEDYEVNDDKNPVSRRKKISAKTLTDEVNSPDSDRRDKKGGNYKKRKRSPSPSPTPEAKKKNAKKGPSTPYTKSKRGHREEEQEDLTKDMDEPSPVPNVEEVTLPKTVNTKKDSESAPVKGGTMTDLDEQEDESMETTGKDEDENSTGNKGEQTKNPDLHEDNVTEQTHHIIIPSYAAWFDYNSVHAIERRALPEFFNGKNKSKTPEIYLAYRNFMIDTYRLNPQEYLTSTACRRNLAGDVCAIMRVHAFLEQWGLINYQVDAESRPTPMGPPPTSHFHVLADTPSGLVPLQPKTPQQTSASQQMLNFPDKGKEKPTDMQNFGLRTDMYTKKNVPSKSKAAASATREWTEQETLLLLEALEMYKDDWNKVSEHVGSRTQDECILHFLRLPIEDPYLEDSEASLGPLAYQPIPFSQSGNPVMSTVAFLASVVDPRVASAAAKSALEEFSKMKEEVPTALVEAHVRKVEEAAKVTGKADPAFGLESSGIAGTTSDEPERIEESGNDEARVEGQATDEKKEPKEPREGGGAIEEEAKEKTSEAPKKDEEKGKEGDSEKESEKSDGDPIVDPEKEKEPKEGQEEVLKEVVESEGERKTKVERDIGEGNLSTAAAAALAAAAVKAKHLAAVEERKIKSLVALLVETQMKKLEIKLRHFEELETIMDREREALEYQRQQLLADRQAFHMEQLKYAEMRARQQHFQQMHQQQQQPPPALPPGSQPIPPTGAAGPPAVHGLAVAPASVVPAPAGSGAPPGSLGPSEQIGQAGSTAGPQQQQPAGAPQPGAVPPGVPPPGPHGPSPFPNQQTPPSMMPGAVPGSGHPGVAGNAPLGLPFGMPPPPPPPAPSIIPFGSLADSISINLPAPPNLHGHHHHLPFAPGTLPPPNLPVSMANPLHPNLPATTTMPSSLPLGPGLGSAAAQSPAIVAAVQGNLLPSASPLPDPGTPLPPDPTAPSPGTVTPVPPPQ

What was measured:
[1] = biological target: KLF4 (rat) (rat (endogenous in lung tissue)) (UniProt F7F8L9); test: proximity ligation; modified Duolink PLA in 350 μm sections of healthy rat lung; bifurcations exposed to disturbed shear stress (DSS)
[2] = biological target: KLF4 (rat) (rat (endogenous in lung tissue)) (UniProt F7F8L9); test: proximity ligation; modified Duolink PLA in 350 μm sections of healthy rat lung; straight parts of the vessel exposed to LSS
[3] = biological target: KLF4 (rat) (rat (endogenous in lung tissue)) (UniProt F7F8L9); test: condition: only at bifurcations exposed to disturbed shear stress; proximity ligation; modified Duolink PLA in 350 μm sections of healthy rat lung; bifurcations exposed to disturbed shear stress (DSS)
[4] = biological target: KLF4 (human (endogenous in PAEC)) (UniProt O43474); test: proximity ligation; Duolink PLA in PAEC exposed to 15 dyn/cm^2 of LSS or ST conditions for 24 h, fixed with 4% PFA; rabbit anti-KLF4 and mouse anti-BRG1 or anti-SMARCC2; epitopes within 40 nm

Row | binding [1] | binding [2] | binding [3] | binding [4] | Substance
1 | binds weakly | binds | no binding |  | BRG1 (rat) (from UniProt Q8K1P7 1-1613)
2 |  |  |  | binds | Brahma-Related Gene 1 (BRG1) (from UniProt P51532 1-1647)
3 |  |  |  | binds | SMARCC2 (from UniProt Q8TAQ2 1-1214)
